From article PMC3834829 come the findings set out here.

No constants are given. Whether binding was seen depends on the method and setting. Some entries that bind do so weakly or less than the wild type.

Assay [1] addresses T1, LexA-BCL11A-(310–325) (UniProt Q9H165).
T1 sequence: PPAMDFSRRLRELAGN
The assay can be described thus: two-hybrid; S. cerevisiae L40; LexA DBD fusion with VP16 AAD-NR fusion; β-galactosidase activity in cell-free extracts; vehicle only or no ligand.

Assay [2] deals with T2, LexA-BCL11A-(651–670) (UniProt Q9H165).
T2 sequence: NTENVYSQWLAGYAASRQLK
Described as above.

Assay [3] has as its target T3, LexA-COUP-TFII-LBD-(144–414) (UniProt P24468).
T3 sequence: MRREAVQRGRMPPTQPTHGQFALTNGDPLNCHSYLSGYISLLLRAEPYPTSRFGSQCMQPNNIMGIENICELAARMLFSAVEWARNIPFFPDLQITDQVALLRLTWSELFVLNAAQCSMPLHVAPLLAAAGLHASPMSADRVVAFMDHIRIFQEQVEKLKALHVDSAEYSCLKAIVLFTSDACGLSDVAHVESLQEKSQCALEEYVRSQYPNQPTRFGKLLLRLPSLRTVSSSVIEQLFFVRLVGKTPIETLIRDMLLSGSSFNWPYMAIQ
The assay is described as above.

The next assay deals with T4, LexA-BCL11A RID2 S657A (UniProt Q9H165).
T4 sequence: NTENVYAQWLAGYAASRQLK
The assay is described as above.

The target in another assay is T5, LexA-BCL11A RID2 Y656A (UniProt Q9H165).
T5 sequence: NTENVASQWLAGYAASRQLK
Described as above.

The target of assay [4] is T1, LexA-BCL11A-(310–325). The assay can be described thus: two-hybrid; S. cerevisiae L40; LexA DBD fusion with VP16 AAD-NR fusion; β-galactosidase activity in cell-free extracts; 10^-6 M cognate ligand added.
In assay [5] the target is T2, LexA-BCL11A-(651–670). The description is as above.

B1: AAD-ERRα-LBD-(169–423) (domain or fragment, UniProt P11474 169-423)
chain: PLPFPGPFPAGPLAVAGGPRKTAAPVNALVSHLLVVEPEKLYAMPDPAGPDGHLPAVATLCDLFDREIVVTISWAKSIPGFSSLSLSDQMSVLQSVWMEVLVLGVAQRSLPLQDELAFAEDLVLDEEGARAAGLGELGAALLQLVRRLQALRLEREEYVLLKALALANSDSVHIEDAEAVEQLREALHEALLEYEAGRAGPGGGAERRRAGRLLLTLPLLRQTAGKVLAHFYGVKLEGKVPMHKLFLEMLEAMMD
In the case of B1, the binding entry in the assay with LexA-BCL11A-(310–325) [1] and with LexA-BCL11A-(651–670) [2] was “no binding” throughout.

B2: AAD-HNF4γ-LBD-(88–408) (domain or fragment, UniProt Q14541 88-408)
chain: RISTRRSTFDGSNIPSINTLAQAEVRSRQISVSSPGSSTDINVKKIASIGDVCESMKQQLLVLVEWAKYIPAFCELPLDDQVALLRAHAGEHLLLGATKRSMMYKDILLLGNNYVIHRNSCEVEISRVANRVLDELVRPFQEIQIDDNEYACLKAIVFFDPDAKGLSDPVKIKNMRFQVQIGLEDYINDRQYDSRGRFGELLLLLPTLQSITWQMIEQIQFVKLFGMVKIDNLLQEMLLGGASNDGSHLHHPMHPHLSQDPLTGQTILLGPMSTLVHADQISTPETPLPSPPQGSGQEQYKIAANQASVISHQHLSKQKQL
Turning to B2, the binding result in the assay with LexA-BCL11A-(310–325) [1] and with LexA-BCL11A-(651–670) [2] was “no binding” each time.

B3: AAD-COUP-TFII-LBD F221A (domain or fragment, UniProt P24468 144-414)
chain: MRREAVQRGRMPPTQPTHGQFALTNGDPLNCHSYLSGYISLLLRAEPYPTSRFGSQCMQPNNIMGIENICELAARMLASAVEWARNIPFFPDLQITDQVALLRLTWSELFVLNAAQCSMPLHVAPLLAAAGLHASPMSADRVVAFMDHIRIFQEQVEKLKALHVDSAEYSCLKAIVLFTSDACGLSDVAHVESLQEKSQCALEEYVRSQYPNQPTRFGKLLLRLPSLRTVSSSVIEQLFFVRLVGKTPIETLIRDMLLSGSSFNWPYMAIQ
Take B3: the binding entry is “no binding” with LexA-BCL11A-(310–325) [1], “no binding” in the assay with LexA-BCL11A-(651–670) [2] and “binds” in assay [3].

B4: AAD-COUP-TFII-LBD R246A (domain or fragment, UniProt P24468 144-414)
chain: MRREAVQRGRMPPTQPTHGQFALTNGDPLNCHSYLSGYISLLLRAEPYPTSRFGSQCMQPNNIMGIENICELAARMLFSAVEWARNIPFFPDLQITDQVALLALTWSELFVLNAAQCSMPLHVAPLLAAAGLHASPMSADRVVAFMDHIRIFQEQVEKLKALHVDSAEYSCLKAIVLFTSDACGLSDVAHVESLQEKSQCALEEYVRSQYPNQPTRFGKLLLRLPSLRTVSSSVIEQLFFVRLVGKTPIETLIRDMLLSGSSFNWPYMAIQ
As for B4, the binding result with LexA-BCL11A-(310–325) [1] and with LexA-BCL11A-(651–670) [2] was “binds” in each case.

B5: AAD-COUP-TFII-LBD R228A (domain or fragment, UniProt P24468 144-414)
chain: MRREAVQRGRMPPTQPTHGQFALTNGDPLNCHSYLSGYISLLLRAEPYPTSRFGSQCMQPNNIMGIENICELAARMLFSAVEWAANIPFFPDLQITDQVALLRLTWSELFVLNAAQCSMPLHVAPLLAAAGLHASPMSADRVVAFMDHIRIFQEQVEKLKALHVDSAEYSCLKAIVLFTSDACGLSDVAHVESLQEKSQCALEEYVRSQYPNQPTRFGKLLLRLPSLRTVSSSVIEQLFFVRLVGKTPIETLIRDMLLSGSSFNWPYMAIQ
With B5, the binding entry with LexA-BCL11A-(310–325) [1] and with LexA-BCL11A-(651–670) [2] was “binds” throughout.

B6: AAD-COUP-TFII-LBD V242A (domain or fragment, UniProt P24468 144-414)
chain: MRREAVQRGRMPPTQPTHGQFALTNGDPLNCHSYLSGYISLLLRAEPYPTSRFGSQCMQPNNIMGIENICELAARMLFSAVEWARNIPFFPDLQITDQAALLRLTWSELFVLNAAQCSMPLHVAPLLAAAGLHASPMSADRVVAFMDHIRIFQEQVEKLKALHVDSAEYSCLKAIVLFTSDACGLSDVAHVESLQEKSQCALEEYVRSQYPNQPTRFGKLLLRLPSLRTVSSSVIEQLFFVRLVGKTPIETLIRDMLLSGSSFNWPYMAIQ
On to B6, for which the binding entry with LexA-BCL11A-(310–325) [1] and with LexA-BCL11A-(651–670) [2] was “binds” each time.

B7: AAD-COUP-TFII-LBD I238A (domain or fragment, UniProt P24468 144-414)
chain: MRREAVQRGRMPPTQPTHGQFALTNGDPLNCHSYLSGYISLLLRAEPYPTSRFGSQCMQPNNIMGIENICELAARMLFSAVEWARNIPFFPDLQATDQVALLRLTWSELFVLNAAQCSMPLHVAPLLAAAGLHASPMSADRVVAFMDHIRIFQEQVEKLKALHVDSAEYSCLKAIVLFTSDACGLSDVAHVESLQEKSQCALEEYVRSQYPNQPTRFGKLLLRLPSLRTVSSSVIEQLFFVRLVGKTPIETLIRDMLLSGSSFNWPYMAIQ
Consider B7, for which the binding entry with LexA-BCL11A-(310–325) [1] and with LexA-BCL11A-(651–670) [2] was “binds” throughout.

B8: AAD-COUP-TFII-LBD V224A (domain or fragment, UniProt P24468 144-414)
chain: MRREAVQRGRMPPTQPTHGQFALTNGDPLNCHSYLSGYISLLLRAEPYPTSRFGSQCMQPNNIMGIENICELAARMLFSAAEWARNIPFFPDLQITDQVALLRLTWSELFVLNAAQCSMPLHVAPLLAAAGLHASPMSADRVVAFMDHIRIFQEQVEKLKALHVDSAEYSCLKAIVLFTSDACGLSDVAHVESLQEKSQCALEEYVRSQYPNQPTRFGKLLLRLPSLRTVSSSVIEQLFFVRLVGKTPIETLIRDMLLSGSSFNWPYMAIQ
Turning to B8, the binding result was “binds” with LexA-BCL11A-(310–325) [1] and “no binding” in the assay with LexA-BCL11A-(651–670) [2].

B9: AAD-EAR2-LBD-(121–399) (domain or fragment, UniProt P10588 121-399)
chain: MRKEAVQRGRIPHSLPGAVAASSGSPPGSALAAVASGGDLFPGQPVSELIAQLLRAEPYPAAAGRFGAGGGAAGAVLGIDNVCELAARLLFSTVEWARHAPFFPELPVADQVALLRLSWSELFVLNAAQAALPLHTAPLLAAAGLHAAPMAAERAVAFMDQVRAFQEQVDKLGRLQVDSAEYGCLKAIALFTPDACGLSDPAHVESLQEKAQVALTEYVRAQYPSQPQRFGRLLLRLPALRAVPASLISQLFFMRLVGKTPIETLIRDMLLSGSTFNWP
Take B9: the binding result in the assay with LexA-BCL11A RID2 S657A, in the assay with LexA-BCL11A RID2 Y656A, with LexA-BCL11A-(310–325) [1] and in the assay with LexA-BCL11A-(651–670) [2] was “binds” throughout.

B10: AAD-RARα-LBD-(200–462) (domain or fragment, UniProt P10276 200-462)
chain: PALCQLGKYTTNNSSEQRVSLDIDLWDKFSELSTKCIIKTVEFAKQLPGFTTLTIADQITLLKAACLDILILRICTRYTPEQDTMTFSDGLTLNRTQMHNAGFGPLTDLVFAFANQLLPLEMDDAETGLLSAICLICGDRQDLEQPDRVDMLQEPLLEALKVYVRKRRPSRPHMFPKMLMKITDLRSISAKGAERVITLKMEIPGSMPPLIQEMLENSEGLDTLSGQPGGGGRDGGGLAPPPGSCSPSLSPSSNRSSPATHSP
Take B10: the binding result in the assay with LexA-BCL11A-(310–325) [4] and in the assay with LexA-BCL11A-(651–670) [5] was “no binding” in each case.

B11: AAD-VDR-LBD-(123–426) (domain or fragment, UniProt P11473 123-426)
chain: KLSEEQQRIIAILLDAHHKTYDPTYSDFCQFRPPVRVNDGGGSHPSRPNSRHTPSFSGDSSSSCSDHCITSSDMMDSSSFSNLDLSEEDSDDPSVTLELSQLSMLPHLADLVSYSIQKVIGFAKMIPGFRDLTSEDQIVLLKSSAIEVIMLRSNESFTMDDMSWTCGNQDYKYRVSDVTKAGHSLELIEPLIKFQVGLKKLNLHEEEHVLLMAICIVSPDRPGVQDAALIEAIQDRLSNTLQTYIRCRHPPPGSHLLYAKMIQKLADLRSLNEEHSKQYRCLSFQPECSMKLTPLVLEVFGNEI
Turning to B11, the binding result with LexA-BCL11A-(310–325) [4] and with LexA-BCL11A-(651–670) [5] was “no binding” throughout.

B12: AAD-COUP-TFII-LBD Δ12-(144–392) (domain or fragment, UniProt P24468 144-392)
chain: MRREAVQRGRMPPTQPTHGQFALTNGDPLNCHSYLSGYISLLLRAEPYPTSRFGSQCMQPNNIMGIENICELAARMLFSAVEWARNIPFFPDLQITDQVALLRLTWSELFVLNAAQCSMPLHVAPLLAAAGLHASPMSADRVVAFMDHIRIFQEQVEKLKALHVDSAEYSCLKAIVLFTSDACGLSDVAHVESLQEKSQCALEEYVRSQYPNQPTRFGKLLLRLPSLRTVSSSVIEQLFFVRLVGKTPI
Regarding B12, the binding result (with LexA-BCL11A-(310–325) [1]; with LexA-BCL11A-(651–670) [2]; in assay [3]) was “no binding” in each case.
